Hit rate of the full screen: of about 310,000 compounds, about 14,000 (4.5%) showed an effect of 50% or more. The effect is printed as a negative number. This is one part of the list.
Target: human ether-à-go-go-related gene (hERG) potassium channel (human, UniProt Q12809)
Assay: primary screen, population patch clamp on CHO cells stably expressing hERG
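Also: peak tail current of the secondary pulse compared with the same well before compound.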

human ether-à-go-go-related gene (hERG) potassium channel, sequence (Q12809 whole entry, looked up): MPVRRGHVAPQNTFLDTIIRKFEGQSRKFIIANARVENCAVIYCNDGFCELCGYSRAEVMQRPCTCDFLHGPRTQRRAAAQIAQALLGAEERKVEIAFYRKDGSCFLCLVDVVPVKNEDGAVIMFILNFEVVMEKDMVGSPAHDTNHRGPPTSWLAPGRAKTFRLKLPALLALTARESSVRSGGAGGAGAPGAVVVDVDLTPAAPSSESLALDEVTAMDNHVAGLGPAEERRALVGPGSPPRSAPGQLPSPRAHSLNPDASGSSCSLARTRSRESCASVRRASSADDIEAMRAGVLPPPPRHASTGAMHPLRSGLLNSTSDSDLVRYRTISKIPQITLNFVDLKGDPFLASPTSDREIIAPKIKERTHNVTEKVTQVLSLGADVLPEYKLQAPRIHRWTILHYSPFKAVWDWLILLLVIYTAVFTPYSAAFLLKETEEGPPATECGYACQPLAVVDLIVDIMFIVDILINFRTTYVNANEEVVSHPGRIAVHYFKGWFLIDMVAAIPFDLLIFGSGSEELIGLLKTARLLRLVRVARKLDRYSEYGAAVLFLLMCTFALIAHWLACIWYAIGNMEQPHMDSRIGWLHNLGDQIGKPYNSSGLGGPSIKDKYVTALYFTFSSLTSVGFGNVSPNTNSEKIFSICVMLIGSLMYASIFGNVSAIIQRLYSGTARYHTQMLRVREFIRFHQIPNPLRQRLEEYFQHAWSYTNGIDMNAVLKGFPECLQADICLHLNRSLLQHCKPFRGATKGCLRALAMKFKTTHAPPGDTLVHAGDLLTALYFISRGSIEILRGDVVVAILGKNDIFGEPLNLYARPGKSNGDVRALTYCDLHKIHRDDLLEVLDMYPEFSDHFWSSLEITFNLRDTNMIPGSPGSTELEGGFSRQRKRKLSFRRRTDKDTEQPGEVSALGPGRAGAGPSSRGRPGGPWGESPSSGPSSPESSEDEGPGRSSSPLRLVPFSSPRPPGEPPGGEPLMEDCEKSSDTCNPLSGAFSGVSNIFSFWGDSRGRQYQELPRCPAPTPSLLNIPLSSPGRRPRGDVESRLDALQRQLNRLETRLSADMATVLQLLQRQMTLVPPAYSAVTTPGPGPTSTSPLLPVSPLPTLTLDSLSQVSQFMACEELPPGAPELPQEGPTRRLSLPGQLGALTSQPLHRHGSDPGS

SMILES | hERG current change (%, negative = inhibition) at 10uM
N#CC1=C(N)Oc2n[nH]c(-c3ccccc3)c2C1c1cccnc1 (centres unmarked) | 7.17%
COc1cccc(N2CCN(c3ccc4nnc(CCC(=O)N5CCC(C)CC5)n4n3)CC2)c1 | -66.4%
O=C(COc1ccc(F)c(Cl)c1)c1ccc[nH]1 | -3.97%
Cc1cc(Nc2ccccc2)nc(N)n1 | 4.4%
COc1cc(Cl)cc2c1Sc1ccccc1/C2=C/CCN(C)C.O=S(=O)(O)O | -48.7%
c1cncc(-c2nc(NCc3ccc4c(c3)OCO4)c3ccccc3n2)c1 | -16.6%
COc1ccc(C(=O)N/C(=C/c2cccnc2)C(=O)Nc2cccc(C(C)=O)c2)cc1OC | 21.2%
COc1ccc(-c2nc(NC(=O)c3[nH]c(C)c(C(C)=O)c3C)sc2C)cc1 | 1%
COc1ccc(-n2c(C)c([N+](=O)[O-])c3ccc(O)c(CN(C)C)c32)cc1 | -57.6%
CC(=O)Nc1ccc2c(c1)ncn2-c1ccc(C)cc1 | -1.92%
Cc1ccc(Sc2cc(C(F)(F)F)nc(N(C)C)n2)cc1 | 10.3%
COCc1ccc(CN2CCC(Oc3ccc(C(=O)NCc4ccccn4)cc3)CC2)o1 | 32.5%
O=C(Cc1ccc(NC2=NC3CS(=O)(=O)CC3S2)cc1)NCc1ccccc1Cl (centres unmarked) | 6.5%
CCn1c(SCC(=O)N(C)CC(=O)Nc2ccc(F)c(F)c2F)nnc1-c1ccco1 | 4.16%
CCOc1cc(/C=C/C(=O)O)ccc1OCCOc1ccc(F)cc1 | -5.87%
Cc1ccc(S(=O)(=O)N(C)C)cc1NC(=O)COC(=O)CSc1ccccc1 | -21.3%
Fc1ccc(NC(=S)N2N=CCC2c2ccccc2)cc1 (centres unmarked) | -32%
Cn1cnnc1SCC(=O)Nc1ccc(Cl)cn1 | 14.5%
O=C1N(c2cccc(Cl)c2)C(c2cccnc2)N2CCCN12 (centres unmarked) | -4.39%
Cc1ccc(OCC(=O)Oc2cccc(C)c2)cc1 | 25.8%
COc1ccc(NC(=O)Cn2c(=O)n(CCC(=O)NCC3CCCO3)c(=O)c3cc(OC)c(OC)cc32)cc1 (centres unmarked) | 11.5%
Cc1occc1C(=O)NNC(=O)c1nn(C)c(=O)c2ccccc12 | 8.46%

SMILES | hERG current change (%, negative = inhibition) at 10uM
O=S(=O)(c1cccc2nonc12)N1CCN(c2ccc(F)cc2)CC1 | 10.1%
COc1ccccc1-c1nnc(NC(=O)OCC(C)C)s1 | 0.412%
CCC(c1nc2ccccc2c(=O)n1CCN1CCOCC1)N1C(=O)c2ccccc2C1=O (centres unmarked) | -15.5%
CSc1ccc(/C=C(\NC(=O)c2ccco2)C(=O)N2CCCCC2)cc1 | -29.6%
COc1cccc(C(=O)Nc2ccc(C(=O)NCC(C)C)cc2)c1 | 8.38%
CCOC(=O)CN(C(=O)CNC(=O)c1ccco1)C(C(=O)NC1CCCCC1)c1cccc(OC)c1 (centres unmarked) | 2.32%
Cc1onc(-c2ccccc2)c1C(=O)N/N=C/c1cc2c(cc1Br)OCO2 | 8.42%
CCN(CC(=O)NCc1cccs1)S(=O)(=O)c1c(F)cccc1F | 0.594%
O=C(Nc1ccc(N2CCOCC2)cc1)c1ccc(Cl)cc1N1CCCC1=O | -8.24%
O=C(N/C(=C\c1ccc(Br)cc1)C(=O)N1CCOCC1)c1ccccc1Cl | -2.31%
CCOCCOCN(C#N)c1nc(OC)nc(N(C)C)n1 | 15.8%
COc1ccc(O)c(C(=O)c2cc(C(=O)NCCc3ccccc3)c(=O)n(CCc3ccccc3)c2)c1 | -2.37%
COC(=O)c1ccccc1S(=O)(=O)N1CCC(C(=O)N(C)CCOc2ccccc2)CC1 | -3.11%
CCCc1nc2scc(-c3ccc(C)cc3)c2c(=O)n1N | 10.3%
O=C(N/N=C/c1c[nH]c2ccccc12)C1CC(=O)N(c2ccccc2)C1 (centres unmarked) | 10.1%
O=C(CCN1C(=O)c2ccccc2C1=O)Nc1ccc(F)cc1 | -6%
COc1ccc(-n2nc(C(=O)NCC(=O)N3CCOCC3)c3ccccc3c2=O)c(OC)c1 | 9.32%
CC1=CC2=NC(=O)/C(=C\c3cc(C)n(-c4cccc(Cl)c4)c3C)C(=N)N2O1 | -0.972%
COc1ccc(N2CCN(CCNC(=O)c3nnc(Cc4c(F)cccc4Cl)o3)CC2)cc1 | -5.6%
Cc1c(NC(=O)/C=C/c2cn(-c3ccccc3)nc2-c2ccccc2)c(=O)n(-c2ccccc2)n1C | -17.7%
COc1ccc(C(=O)NCC(=O)N2CCNC(=O)C2)cc1OC | 22.9%
c1ccc(-n2c(-c3ccncc3)nnc2-c2ccco2)cc1 | -20.6%

SMILES | hERG current change (%, negative = inhibition) at 10uM
COc1cc(OC)c2c(c1C(CCN1CCOCC1)c1ccc(N(C)C)cc1)OC(=O)CC2c1ccc(N(C)C)cc1 (centres unmarked) | 17%
CCOC(=O)N1CCN(C(=S)Nc2cc(S(=O)(=O)N3CCOCC3)ccc2Cl)CC1 | 3.28%
CCOc1ccc2nc(SCC(=O)N(CC(C)C)c3c(N)n(Cc4ccccc4)c(=O)[nH]c3=O)[nH]c2c1 | -4.56%
COc1ccccc1C(=O)NCC(=O)NCCC(c1ccccc1)c1ccccc1 | -64.4%
C/C(=N\NC(N)=S)c1ccc2c(c1)OCCO2 | 10%
Cc1ccc2c(c1)sc1nc(=O)n(-c3ccc(Cl)cc3)c(=O)n12 | 6.6%
CCCCCCCCS(=O)c1sc2nc3c(cc2c1N)CCCC3 (centres unmarked) | 11.9%
COc1ccccc1OCCNC(=O)C1CCCCC1 | 28.8%
COc1cc(Cl)ccc1OCc1cc(C(=O)N(C)Cc2nnc(C)o2)no1 | -1.17%
COC(=O)c1ccc(NC(=O)c2ccc(NC(=O)C3CCCO3)cc2)cc1 (centres unmarked) | -27.6%
Cc1cccc(NC(=O)CN2C(=O)CNC2=O)c1 | 5.3%
CC1(C)CC(=O)/C(=C\c2cccc([N+](=O)[O-])c2)C(C)(C)N1 | 0.874%
COc1ccc(N(CC2CO2)S(=O)(=O)c2ccc(C)cc2)cc1 (centres unmarked) | 6.32%
CC(C)(C)NC(=O)CN(Cc1ccc(F)cc1)C(=O)Cn1nnc(-c2ccc(F)cc2)n1 | 13.1%
Cc1cccc(OCCCC(=O)N2CCCCCC2)c1C | 11.4%
Cc1nn(-c2ncc(C(F)(F)F)cc2Cl)c(=O)n1-c1ccccc1F | 6.41%
COc1cccc(C(=O)Nc2nc3ccccc3s2)c1 | 4.88%
O=C(c1ccccc1Cl)N1CCC(O)(c2cccnc2)CC1 | 1.99%
CCOc1ccc(N(C(=O)CNS(=O)(=O)c2ccccc2)C(CC)C(=O)NCc2ccco2)cc1 (centres unmarked) | -15.2%
CCOc1ccc(Cc2c(Cl)nc(N)nc2Cl)cc1 | 9.57%
CCCC(NC(=O)c1ccccc1)c1nc2ccccc2n1Cc1ccc(C(=O)OC)o1 (centres unmarked) | -22.9%
COc1cccc(C(=O)NC2CCN(CC(=O)Nc3c(C)cc(C)cc3C)CC2)c1 | -6.27%

SMILES | hERG current change (%, negative = inhibition) at 10uM
CC1CCN(S(=O)(=O)c2ccc(NC(=O)C3CC(=O)N(c4ccccc4)C3)cc2)CC1 (centres unmarked) | 14.8%
O=C(CCn1nnc2ccccc2c1=O)N[C@@H](Cc1c[nH]c2ccccc12)C(=O)O | 14.4%
O=C(NCCc1ccc(Cl)cc1Cl)c1cncc(Br)c1 | -1.57%
O=c1[nH]c(=O)n(Cc2ccccc2)c2nc(-c3cccs3)n(CCO)c12 | 14.3%
CCN1CCCC1CNC(=O)Cn1nc(C)n2c(cc3cc(F)ccc32)c1=O (centres unmarked) | 5.18%
O=C(COC(=O)C1CCC1)NCc1ccc(F)cc1 | 13.1%
CC(C)COC(=O)n1ccc(C(=O)N2CCCCC2)n1 | -1.97%
COc1ccc(Cc2nc3ccc(C(=O)NCc4ncc(C)[nH]4)cc3o2)cc1OC | -2%
COc1cc(-n2c(C)nc3cc(C(=O)O)ccc32)cc(OC)c1OC | 27.1%
CCCS(=O)(=O)N1CCC(C(=O)N2CCCC2)CC1 | 10.1%
COC(=O)c1ccc(Cn2cnc3c(cnn3-c3ccc(C)c(C)c3)c2=O)o1 | -3.62%
COc1ccc(OC)c(CCNC(=O)CCCC(=O)n2ncc3cc(C)ccc32)c1 | -10%
O=C(Nc1ccc2c(c1)OCCO2)C1CCN(C(=O)c2ccccc2)CC1 | 5.84%
Cc1c(Cl)cccc1NC(=S)N1CCN(c2ncccn2)CC1 | 20.2%
CCOc1cccc(/C=N/NC(=O)c2cc(-c3cccn3C)n[nH]2)c1O | -9.59%
CC(C)(C)n1cnc2cc(NC(=O)c3ccco3)ccc21 | -2.57%
O=C(Cc1c(F)cccc1Cl)Nc1ccc(S(=O)(=O)N2CCOCC2)cc1 | -6.1%
O=C(CCCc1cccs1)Nc1ccc2c(c1)OCO2 | 1.78%
Cn1cc(Br)c(C(=O)NN2C(=O)C3C4C=CC(C5CC45)C3C2=O)n1 (centres unmarked) | 37%
CN(C)S(=O)(=O)c1ccc(NC(=S)NC(=O)c2cccs2)cc1 | 8.97%

From article PMC4336329 (PLoS ONE, 2015)
